Some of the results follow.
B1: PhoQ; a variant is named by its letters at X, in order, P23837 (parent)
chain: MKKLLRLFFPLSLRVRFLLATAAVVLVLSLAYGMVALIGYSVSFDKTTFRLLRGESNLFYTLAKWENNKLHVELPENIDKQSPTMTLIYDENGQLLWAQRDVPWLMKMIQPDWLKSNGFHEIEADVNDTSLLLSGDHSIQQQLQEVREDDDDAEMTHSVAVNVYPATSRMPKLTIVVVDTIPVELKSSYMVWSWFIYVLSANLLLVIPLLWVAAWWSLRPIEALAKEVRELEEHNRELLNPATTRELTSLVRNLNRLLKSERERYDKYRTTLTDLTHSLKTPLXXLQXXLRSLRSEKMSVSDAEPVMLEQISRISQQIGYYLHRASMRGGTLLSRELHPVAPLLDNLTSALNKVYQRKGVNISLDISPEISFVGEQNDFVEVMGNVLDNACKYCLEFVEISARQTDEHLYIVVEDDGPGIPLSKREVIFDRGQRVDTLRPGQGVGLAVAREITEQYEGKIVAGESMLGGARMEVIFGRQHSAPKDE

Variants of: B1
Assay: enrichment ratio after two sorts for PhoP signalling (ratio (wild type AVST 3.29)); higher = more functional
Settings: with PhoP (E. coli)

Point of comparison: TCTY, enrichment ratio 14.7. Against it:
- PCIH — lower, ≤ 0.25
- MWRM — lower, ≤ 0.25
- LYTS — lower, ≤ 0.25
- AMYW — lower, ≤ 0.25
- GTKQ — lower, ≤ 0.25
- WKRR — lower, ≤ 0.25
- SWHW — lower, ≤ 0.25
- TMCW — lower, ≤ 0.25
- EKSR — lower, ≤ 0.25
- VSSH — lower, ≤ 0.25
- YFTE — lower, ≤ 0.25
- SCTG — lower, 7.75
- GGYF — lower, ≤ 0.25
- VFHW — lower, ≤ 0.25
- FHRC — lower, ≤ 0.25
- GSIH — lower, ≤ 0.25
- MFFA — lower, ≤ 0.25
- DYHN — lower, ≤ 0.25
- VSHT — lower, ≤ 0.25
- IPMN — lower, ≤ 0.25
- FKEA — lower, ≤ 0.25
- MRFS — lower, ≤ 0.25
- WSVF — lower, ≤ 0.25
- RESK — lower, ≤ 0.25
- AIAP — lower, 0.627
- SDQF — lower, ≤ 0.25
- IHPK — lower, ≤ 0.25
- YCNY — lower, ≤ 0.25
- TRNK — lower, ≤ 0.25
- DTIA — lower, ≤ 0.25
- YHRH — lower, ≤ 0.25
- TKWA — lower, ≤ 0.25
- GTKF — lower, ≤ 0.25
- PYVT — lower, ≤ 0.25
- FITQ — lower, ≤ 0.25
- VQSF — lower, ≤ 0.25
- SWFQ — lower, ≤ 0.25
- EKCP — lower, ≤ 0.25
- IWPV — lower, ≤ 0.25
- VNRR — lower, ≤ 0.25
- YHPM — lower, ≤ 0.25
- MVPN — lower, ≤ 0.25
- WNEL — lower, ≤ 0.25
- QSDM — lower, 13.7
- SMIS — lower, ≤ 0.25
- PRQA — lower, ≤ 0.25
- MMMN — lower, ≤ 0.25
- HCGH — lower, ≤ 0.25
- LLKC — lower, ≤ 0.25
- FFMS — lower, ≤ 0.25
- DFCE — lower, ≤ 0.25
- WARC — lower, ≤ 0.25
- VLGR — lower, ≤ 0.25
- SMSN — lower, 5.91
- LIQS — lower, ≤ 0.25
- MDLM — lower, ≤ 0.25
- KCAN — lower, ≤ 0.25
- YYCT — lower, ≤ 0.25
- TDMP — lower, ≤ 0.25
- VKFD — lower, ≤ 0.25
- PDYQ — lower, ≤ 0.25
- YTNW — lower, ≤ 0.25
- NTWV — lower, ≤ 0.25
- PHWT — lower, ≤ 0.25
- PWNE — lower, ≤ 0.25
- FHGR — lower, ≤ 0.25
- ARNG — lower, ≤ 0.25
- MQHS — lower, ≤ 0.25
- EFEQ — lower, ≤ 0.25
- TQNL — lower, 6.43
- NPQQ — lower, ≤ 0.25
- SLQN — lower, ≤ 0.25
- KNIY — lower, ≤ 0.25
- PNDS — lower, ≤ 0.25
- KNVE — lower, ≤ 0.25
- TQAR — lower, ≤ 0.25
- YGTS — lower, ≤ 0.25
- ERFH — lower, 2.67
- TMCS — higher, 16.8
- VCPV — lower, ≤ 0.25
- FDVW — lower, ≤ 0.25
- WSYP — lower, ≤ 0.25
- LAYH — lower, ≤ 0.25
- TENG — lower, 7.13
- NSYK — lower, ≤ 0.25
- VFML — lower, ≤ 0.25
- ATAR — lower, ≤ 0.25
- ERCI — lower, ≤ 0.25
- DGVF — lower, ≤ 0.25
- VVIR — lower, ≤ 0.25
- DHSG — lower, ≤ 0.25
- PQFF — lower, ≤ 0.25
- LSSQ — lower, ≤ 0.25
- QTCD — lower, ≤ 0.25
- DSRT — lower, ≤ 0.25
- IHHF — lower, ≤ 0.25
- QIDL — lower, ≤ 0.25
- WSKR — lower, ≤ 0.25
- EYMC — lower, ≤ 0.25
- DVNM — lower, ≤ 0.25
- RAET — lower, ≤ 0.25
- YCII — lower, ≤ 0.25
- PRLD — lower, ≤ 0.25
- PDLP — lower, 0.351
- AFEF — lower, ≤ 0.25
- GLLH — lower, ≤ 0.25
- VPTI — lower, ≤ 0.25
- ALCC — lower, 5.38
- IFKA — lower, ≤ 0.25
- TNAN — lower, 2.19
- LWMV — lower, ≤ 0.25
- ILSH — lower, ≤ 0.25
- MKVN — lower, ≤ 0.25
- TIMM — lower, 2.21
- YWNV — lower, ≤ 0.25
- FRPE — lower, ≤ 0.25
- NSKQ — lower, ≤ 0.25
- AVFE — lower, ≤ 0.25
- RYVG — lower, ≤ 0.25
- NGHH — lower, ≤ 0.25
- MWAY — lower, ≤ 0.25
- YWVQ — lower, ≤ 0.25
- NAPD — lower, ≤ 0.25
- MFRI — lower, ≤ 0.25
- ILVI — lower, ≤ 0.25
- DTFL — lower, ≤ 0.25
- QFQS — lower, ≤ 0.25
- PVQV — lower, ≤ 0.25
- QSSV — lower, 10.3
- KYIQ — lower, ≤ 0.25
- HEFH — lower, ≤ 0.25
- GTCC — lower, ≤ 0.25
- NNCP — lower, ≤ 0.25
- IEDH — lower, ≤ 0.25
- YYFA — lower, ≤ 0.25
- WWST — lower, ≤ 0.25
- SQDK — lower, ≤ 0.25
- RSCQ — lower, ≤ 0.25
- ECLA — lower, ≤ 0.25
- NPKP — lower, ≤ 0.25
- NKIR — lower, ≤ 0.25
- SMKL — lower, ≤ 0.25
- LDNS — lower, ≤ 0.25
- RVTP — lower, ≤ 0.25
- TMQD — lower, 10.9
- NWLH — lower, ≤ 0.25
- QEIW — lower, ≤ 0.25
- KDVN — lower, ≤ 0.25
- HMYD — lower, ≤ 0.25
- VHTM — lower, ≤ 0.25
- SNSQ — lower, 5.57
- AEKA — lower, ≤ 0.25
- IHMF — lower, ≤ 0.25
- SLCN — lower, 11.5
- FKDV — lower, ≤ 0.25
- NFPY — lower, ≤ 0.25
- LGWK — lower, ≤ 0.25
- SAYL — lower, 1.93
- AIMY — lower, 6.62
- LKLI — lower, ≤ 0.25
- FDYF — lower, ≤ 0.25
- DVIK — lower, ≤ 0.25
- WWHM — lower, ≤ 0.25
- ITWI — lower, ≤ 0.25
- GPYQ — lower, ≤ 0.25
- GHCN — lower, ≤ 0.25
- RIHQ — lower, ≤ 0.25
- DWDY — lower, ≤ 0.25
- KTAM — lower, ≤ 0.25
- MAPK — lower, ≤ 0.25
- TDLQ — higher, 18.8
- YIWT — lower, ≤ 0.25
- GVTG — lower, 0.328
- RPHT — lower, ≤ 0.25
- TAIT — lower, ≤ 0.25
- FCVK — lower, ≤ 0.25
- GWPK — lower, ≤ 0.25
- TVMH — lower, 5
- WVRV — lower, ≤ 0.25
- YAYT — lower, ≤ 0.25
- FLIL — lower, ≤ 0.25
- QYCK — lower, ≤ 0.25
- IQNG — lower, ≤ 0.25
- TGNL — lower, 6.33
- DKYK — lower, ≤ 0.25
- DHGP — lower, ≤ 0.25
- QQVA — lower, ≤ 0.25
- VYLY — lower, ≤ 0.25
- FRPC — lower, ≤ 0.25
- GPTM — lower, ≤ 0.25
- EDCL — lower, ≤ 0.25
- HWYT — lower, ≤ 0.25
- LLCM — lower, ≤ 0.25
- IMPT — lower, ≤ 0.25
- WFQG — lower, ≤ 0.25
- RMCH — lower, ≤ 0.25
- MEWT — higher, 34.7
- DLVL — lower, ≤ 0.25
- FQSD — lower, ≤ 0.25
- GCVS — lower, ≤ 0.25
- IFVV — lower, ≤ 0.25
- HDNM — lower, ≤ 0.25
- TDSE — lower, ≤ 0.25
- RSSY — lower, ≤ 0.25
- TQFG — lower, 9.31
- GPVY — lower, ≤ 0.25
- HMGY — lower, ≤ 0.25
- WSNF — lower, ≤ 0.25
- RRHC — lower, ≤ 0.25
- FQVG — lower, ≤ 0.25
- GLGN — lower, ≤ 0.25
- MSQP — lower, ≤ 0.25
- HMVI — lower, ≤ 0.25
- TLWF — lower, ≤ 0.25
- TMMV — lower, 4.75
- PRLT — lower, ≤ 0.25
- YYAR — lower, ≤ 0.25
- DARF — lower, ≤ 0.25
- YKKN — lower, ≤ 0.25
- SSAP — lower, ≤ 0.25
- KINS — lower, ≤ 0.25
- PHYT — lower, ≤ 0.25
- MMAY — lower, 0.946
- IDNY — lower, ≤ 0.25
- QVFG — lower, ≤ 0.25
- MNDG — lower, ≤ 0.25
- MQPT — lower, ≤ 0.25
- VNQV — lower, ≤ 0.25
- EGRC — lower, ≤ 0.25
- TGRI — lower, ≤ 0.25
- NHYF — lower, ≤ 0.25
- KACL — lower, ≤ 0.25
- QALW — lower, ≤ 0.25
- GCLV — lower, 14.5
- WLWY — lower, ≤ 0.25
- WMAF — lower, ≤ 0.25
- LDDV — lower, ≤ 0.25
- KYMA — lower, ≤ 0.25
- TKCK — lower, ≤ 0.25
- QPYE — lower, ≤ 0.25
- RTVT — lower, ≤ 0.25
- NEAR — lower, ≤ 0.25
- TAVQ — lower, ≤ 0.25
- LHIW — lower, ≤ 0.25
- WPHW — lower, ≤ 0.25
- FTHP — lower, ≤ 0.25
- NDRK — lower, ≤ 0.25
- SHQM — lower, 0.951
- ETDF — lower, ≤ 0.25
- EYQW — lower, ≤ 0.25
- VPLY — lower, ≤ 0.25
- NADL — lower, ≤ 0.25
- HKDM — lower, ≤ 0.25
- RQHM — lower, ≤ 0.25
- CATL — lower, ≤ 0.25
- YAAY — lower, ≤ 0.25
- RFAF — lower, ≤ 0.25
- PEHS — lower, ≤ 0.25
- VLWW — lower, ≤ 0.25
- MGLH — lower, 3.88
- NPHY — lower, ≤ 0.25
- NQEA — lower, ≤ 0.25
- TQYG — lower, 3.81
- FNWC — lower, ≤ 0.25
- FHFY — lower, ≤ 0.25
- PHKT — lower, ≤ 0.25
- VQPM — lower, ≤ 0.25
- EHEI — lower, ≤ 0.25
- DMVV — lower, ≤ 0.25
- RMAK — lower, ≤ 0.25
- DFPG — lower, ≤ 0.25
- DEPI — lower, ≤ 0.25
- RFQP — lower, ≤ 0.25
- HDFY — lower, ≤ 0.25
- FCYC — lower, ≤ 0.25
- MTFE — lower, ≤ 0.25
- QQLL — lower, ≤ 0.25
- FCIG — lower, ≤ 0.25
- DQKM — lower, ≤ 0.25
- FPEE — lower, ≤ 0.25
- MEPV — lower, ≤ 0.25
- SVIL — lower, ≤ 0.25
- LGGM — lower, ≤ 0.25
- VFGI — lower, ≤ 0.25
- GVHW — lower, ≤ 0.25
- MYHV — lower, 0.292
- SFYS — lower, ≤ 0.25
- INIK — lower, ≤ 0.25
- DGFI — lower, ≤ 0.25
- MHFC — lower, ≤ 0.25
- LHQS — lower, ≤ 0.25
- VNVE — lower, ≤ 0.25
- MPFN — lower, ≤ 0.25
- EFMR — lower, ≤ 0.25
- RVYV — lower, ≤ 0.25
- DCHF — lower, ≤ 0.25
- GQSP — lower, ≤ 0.25
- RRWI — lower, ≤ 0.25
- AANS — lower, ≤ 0.25
- VCLC — lower, 2.94
- AKPK — lower, ≤ 0.25
- PQGH — lower, ≤ 0.25
- LWHK — lower, ≤ 0.25
- HMKM — lower, ≤ 0.25
- PCNK — lower, ≤ 0.25

Source: a collection of fitness landscapes (doi:10.1126/science.1257360)
